Experimental data from publication PMC12820563.
The list shows a part of the results. The list includes weakly bound sequences.

Each sequence was assayed against T1, MBP-FoxP3dN (UniProt Q99JB6) (assay: PD-seq (MBP pull-down with sequencing)). Conditions: 20 mM Tris-HCl pH 7.5, 100 mM NaCl, 1.5 mM MgCl2, 0.4 uM protein, 0.1 uM dsDNA library, 30 min, room temperature, amylose pull-down; high values mean tight binding; double strand, one strand shown.
T1 sequence: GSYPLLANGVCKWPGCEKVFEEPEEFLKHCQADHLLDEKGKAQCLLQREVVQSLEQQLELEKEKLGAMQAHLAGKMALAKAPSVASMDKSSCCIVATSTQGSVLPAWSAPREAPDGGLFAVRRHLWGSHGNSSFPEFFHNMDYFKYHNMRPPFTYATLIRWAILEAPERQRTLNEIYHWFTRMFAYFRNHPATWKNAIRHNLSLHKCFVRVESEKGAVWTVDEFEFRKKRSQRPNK

Sequence | binding signal (RPM ratio (pull-down/input))
GATGATTGTTCTCCCAGCTGATGAATTGGTTTACTCGAGTAAACAAATTTTCCTAATCTTTCTGTTCAAGCGCCATCTAC | 4.7
GATGATTGTTCTCCCAGCTGATGAATTCTGGGAATCGAGTAAACAAATTTTCCTAATCTTTCTGTTCAAGCGCCATCTAC | 0.225
GATGATTGTTCTCCCAGCTGATGAATTGCTTAGTTCGAGTAAACAAATTTTCCTAATCTTTCTGTTCAAGCGCCATCTAC | 0.943
GATGATTGTTCTCCCAGCTGATGAATTCTACCGCTCGAGTAAACAAATTTTCCTAATCTTTCTGTTCAAGCGCCATCTAC | 0.281
GATGATTGTTCTCCCAGCTGATGAATTGATTTAGTCGAGTAAACAAATTTTCCTAATCTTTCTGTTCAAGCGCCATCTAC | 1.58
GATGATTGTTCTCCCAGCTGATGAATTGATCAGCTCGAGTAAACAAATTTTCCTAATCTTTCTGTTCAAGCGCCATCTAC | 0.287
GATGATTGTTCTCCCAGCTGATGAATTTTCCGGTTCGAGTAAACAAATTTTCCTAATCTTTCTGTTCAAGCGCCATCTAC | 0.213
GATGATTGTTCTCCCAGCTGATGAATTTAACTGATCGAGTAAACAAATTTTCCTAATCTTTCTGTTCAAGCGCCATCTAC | 0.308
GATGATTGTTCTCCCAGCTGATGAATTGTTCGGCTCGAGTAAACAAATTTTCCTAATCTTTCTGTTCAAGCGCCATCTAC | 0.297
GATGATTGTTCTCCCAGCTGATGAATTTGGGATTTCGAGTAAACAAATTTTCCTAATCTTTCTGTTCAAGCGCCATCTAC | 0.407
GATGATTGTTCTCCCAGCTGATGAATTTCCCGGTTCGAGTAAACAAATTTTCCTAATCTTTCTGTTCAAGCGCCATCTAC | 0.209
GATGATTGTTCTCCCAGCTGATGAATTGTCGATGTCGAGTAAACAAATTTTCCTAATCTTTCTGTTCAAGCGCCATCTAC | 0.48
GATGATTGTTCTCCCAGCTGATGAATTGCTAATATCGAGTAAACAAATTTTCCTAATCTTTCTGTTCAAGCGCCATCTAC | 0.872
GATGATTGTTCTCCCAGCTGATGAATTCCATAAATCGAGTAAACAAATTTTCCTAATCTTTCTGTTCAAGCGCCATCTAC | 0.233
GATGATTGTTCTCCCAGCTGATGAATTGCCGCGTTCGAGTAAACAAATTTTCCTAATCTTTCTGTTCAAGCGCCATCTAC | 1.88
GATGATTGTTCTCCCAGCTGATGAATTTATGACATCGAGTAAACAAATTTTCCTAATCTTTCTGTTCAAGCGCCATCTAC | 0.882
GATGATTGTTCTCCCAGCTGATGAATTATGGGGCTCGAGTAAACAAATTTTCCTAATCTTTCTGTTCAAGCGCCATCTAC | 0.439
GATGATTGTTCTCCCAGCTGATGAATTTTGTAAGTCGAGTAAACAAATTTTCCTAATCTTTCTGTTCAAGCGCCATCTAC | 1.71
GATGATTGTTCTCCCAGCTGATGAATTCAAAGAGTCGAGTAAACAAATTTTCCTAATCTTTCTGTTCAAGCGCCATCTAC | 0.196
GATGATTGTTCTCCCAGCTGATGAATTTGCGAGCTCGAGTAAACAAATTTTCCTAATCTTTCTGTTCAAGCGCCATCTAC | 0.663

Sequence | binding signal (RPM ratio (pull-down/input))
GATGATTGTTCTCCCAGCTGATGAATTCCAAACTTCGAGTAAACAAATTTTCCTAATCTTTCTGTTCAAGCGCCATCTAC | 0.292
GATGATTGTTCTCCCAGCTGATGAATTGGCTGTTTCGAGTAAACAAATTTTCCTAATCTTTCTGTTCAAGCGCCATCTAC | 1.71
GATGATTGTTCTCCCAGCTGATGAATTAGAGACATCGAGTAAACAAATTTTCCTAATCTTTCTGTTCAAGCGCCATCTAC | 0.458
GATGATTGTTCTCCCAGCTGATGAATTGGTTCGATCGAGTAAACAAATTTTCCTAATCTTTCTGTTCAAGCGCCATCTAC | 0.258
GATGATTGTTCTCCCAGCTGATGAATTGTTCGAGTCGAGTAAACAAATTTTCCTAATCTTTCTGTTCAAGCGCCATCTAC | 0.354
GATGATTGTTCTCCCAGCTGATGAATTGGGTTTATCGAGTAAACAAATTTTCCTAATCTTTCTGTTCAAGCGCCATCTAC | 2.06
GATGATTGTTCTCCCAGCTGATGAATTCCCTTCTTCGAGTAAACAAATTTTCCTAATCTTTCTGTTCAAGCGCCATCTAC | 0.278
GATGATTGTTCTCCCAGCTGATGAATTGTCTCACTCGAGTAAACAAATTTTCCTAATCTTTCTGTTCAAGCGCCATCTAC | 0.421
GATGATTGTTCTCCCAGCTGATGAATTGATTGGTTCGAGTAAACAAATTTTCCTAATCTTTCTGTTCAAGCGCCATCTAC | 2.6
GATGATTGTTCTCCCAGCTGATGAATTTAGGAATTCGAGTAAACAAATTTTCCTAATCTTTCTGTTCAAGCGCCATCTAC | 0.763
GATGATTGTTCTCCCAGCTGATGAATTCGTGTAATCGAGTAAACAAATTTTCCTAATCTTTCTGTTCAAGCGCCATCTAC | 1.04
GATGATTGTTCTCCCAGCTGATGAATTTGTCGAGTCGAGTAAACAAATTTTCCTAATCTTTCTGTTCAAGCGCCATCTAC | 1.08
GATGATTGTTCTCCCAGCTGATGAATTCTCATGCTCGAGTAAACAAATTTTCCTAATCTTTCTGTTCAAGCGCCATCTAC | 0.369
GATGATTGTTCTCCCAGCTGATGAATTAGCATTGTCGAGTAAACAAATTTTCCTAATCTTTCTGTTCAAGCGCCATCTAC | 3.44
GATGATTGTTCTCCCAGCTGATGAATTGCGTCTGTCGAGTAAACAAATTTTCCTAATCTTTCTGTTCAAGCGCCATCTAC | 1.19
GATGATTGTTCTCCCAGCTGATGAATTCCAGACCTCGAGTAAACAAATTTTCCTAATCTTTCTGTTCAAGCGCCATCTAC | 0.198
GATGATTGTTCTCCCAGCTGATGAATTGCATAGATCGAGTAAACAAATTTTCCTAATCTTTCTGTTCAAGCGCCATCTAC | 0.657
GATGATTGTTCTCCCAGCTGATGAATTGGGCAACTCGAGTAAACAAATTTTCCTAATCTTTCTGTTCAAGCGCCATCTAC | 4.1
GATGATTGTTCTCCCAGCTGATGAATTGGATCAGTCGAGTAAACAAATTTTCCTAATCTTTCTGTTCAAGCGCCATCTAC | 0.229
GATGATTGTTCTCCCAGCTGATGAATTTACATCCTCGAGTAAACAAATTTTCCTAATCTTTCTGTTCAAGCGCCATCTAC | 0.723
